Measurements: PubChem BioAssay AID2060625 (Molecular Pharmacology Branch, DTP, NCI, 2025)
For part of its entries the source gives two or more results. The other results are left out here. The source may hold further records. The records of an entry repeat one measurement in other runs, samples, wells, individuals or studies. Brackets with × say how often a value occurs here.

System: 186277-243-T-J2-PDC spheroids with HUVEC/MSC, viability
Assay: Anticancer human tumor 186277-243-T-J2-PDC patient-derived colon adenocarcinoma cell line growth inhibition [CLK]
Conditions: stronger effect = lower value
Excerpt: A high-throughput screen of multi-cell type tumor spheroids was designed to identify active combinations of […] and targeted small molecules. Complex spheroids include a stromal component modeled by human endothelial cells (HUVEC) and fibroblasts modeled by human mesenchymal stem cells (MSCs). The concentration ranges selected for each drug and investigational agent were based upon clinically achievable concentrations if the clinical Cmax of the agent was known.
Compounds. The drugs and investigational agents: cirtuvivint (SM08502; NSC835563), CC-671 (NSC850746), vemurafenib (NSC761431), tapotoclax (NSC804041), sotorasib (NSC818433), adagrasib (NSC831453), MRTX-1133 (NSC836407), BAY2416964 (NSC825713), copanlisib (NSC816437), inavolisib (NSC800729), abemaciclib (NSC768073), osimertinib (NSC779217), entinostat (NSC756642), eltanexor (KPT-8602, NSC794443), venetoclax (NSC766270), ceralasertib (NSC777638), bortezomib (NSC756655), olaparib (NSC753686), talazoparib (NSC767125), alisertib (NSC759677), peposertib (NSC802822), gemcitabine (NSC613327), 5-fluorouracil (NSC19893), SN-38 (NSC673596), oxaliplatin (NSC266046), paclitaxel (NSC125973), and doxorubicin (NSC123127), were obtained from the National Cancer Institute (NCI) Developmental Therapeutics Program Chemical Repository. The FDA-approved anticancer drug set is available from the Developmental Therapeutics Program at https://dtp.cancer.gov/organization/dscb/obtaining/available plates.htm. […] The stock solutions were prepared in dimethyl sulfoxide (DMSO, Sigma-Aldrich, St. Louis, MO, cat. D2650), except for the platinum complexes which were prepared in saline (Quality Biological, Gaithersburg, MD, cat. 114-055-101), at 800-fold the tested concentration and stored at -70 degrees C prior to their use. All drugs and investigational agents were tested over a range starting from a high concentration at or near the clinical Cmax and decreasing in half-log increments. If the clinical Cmax for an agent had not been determined, the highest concentration tested was 10 microM.
Cell Culture. All cells were maintained in an incubator at 37 degrees C and 5% CO2 with 95% humidity. The PDC lines were cultured according to standard operating procedures established by the NCI PDMR. Briefly, all PDCs were thawed and cultured in Matrigel-coated flasks prepared with a working solution of 1X Ham's F-12 nutrient mix, without supplementation (Invitrogen, Waltham, MA, cat. 11765054), 100 U/mL penicillin-streptomycin (Invitrogen, cat. 15140122), and 2.5% Matrigel (Corning Inc., Corning, NY, cat. 354248) for the first three passages. […]
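Further: compound exposure lasted seven days before readout; 100% = DMSO vehicle control wells.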

Row | SMILES | viability, T/C (compound alone 0.0316 µM) | viability, T/C (compound alone 10 µM) | viability, T/C (compound alone 0.1 µM)
1 | CNC(=O)c1ccc(Nc2nc(OC3CCCC3)c3c(-c4ccc5nc(C)oc5c4)c[nH]c3n2)c(OC)c1 | 112, 98.5, 102, 113, 101 (2×), 98, 124, 109, 106 (2×), 108% | – | –
2 | C=C(F)C(=O)N1CCN(c2nc(OCC3CCCN3C)nc3c2CCN(c2cccc4cccc(Cl)c24)C3)CC1CC#N (centres undefined) | – | 35.8% and 2.73% | –
3 | CN1CCN(c2cc(C(=O)Nc3cc4cc(-c5cnn(C)c5)ccc4cn3)ccn2)CC1 | 85.7, 98.6, 110, 90.5, 94.9, 97.1, 98.5, 103, 83.2, 100, 107% | – | 80.5, 79.2, 71.4, 83, 80.7, 84.9, 71.1, 87.7, 79.4, 81.2, 98.2%
